This passage reports inhibition results from PubChem BioAssay AID485344 (National Center for Advancing Translational Sciences (NCATS), 2010).

The campaign covered roughly 340,000 compounds. About 6,900 (2%) were called active. Cut-off read from the data, not from the text of the source: active = inhibition above about 30%; inactive = below that, where a call was filed. The list shows a part of the results, in another mix than the full data. The source gives no active or inactive call for entries shown without one.

For the experiment, the target named is D(2) dopamine receptor (Homo sapiens) (UniProt P14416). As to the kind of experiment: HTS Assay for Allosteric Antagonists of the Human D2 Dopamine Receptor: Primary Screen for Antagonists. Note: 0% is about no effect. The conditions noted are these: HEK293 TREx D2 cells, calcium flux, dopamine EC80; at 10 µM; stronger effect = higher value. The essentials: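 Compounds are added to dye-loaded, induced HEK293 T-REx cells coupled to calcium release via D2; after a 3 min kinetic read an EC80 dopamine stimulus is given and fluorescence is recorded for 3 more min.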
UniProt P14416, sequence (P14416 whole entry, looked up): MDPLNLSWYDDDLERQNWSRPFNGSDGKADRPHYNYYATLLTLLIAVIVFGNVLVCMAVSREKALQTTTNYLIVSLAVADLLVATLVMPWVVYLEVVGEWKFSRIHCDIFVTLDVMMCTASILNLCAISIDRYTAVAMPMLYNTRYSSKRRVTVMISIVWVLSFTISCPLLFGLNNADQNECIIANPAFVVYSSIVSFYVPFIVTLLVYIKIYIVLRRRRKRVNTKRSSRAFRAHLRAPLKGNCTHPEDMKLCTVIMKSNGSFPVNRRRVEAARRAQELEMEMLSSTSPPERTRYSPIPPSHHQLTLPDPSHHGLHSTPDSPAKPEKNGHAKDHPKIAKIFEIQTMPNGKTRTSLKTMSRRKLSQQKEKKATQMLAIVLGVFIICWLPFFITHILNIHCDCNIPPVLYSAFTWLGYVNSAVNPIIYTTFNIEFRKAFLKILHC
Take `CCc1ccc(NC(=O)N(Cc2cn(CC)c3ccccc23)C2CCCCC2)cc1`: the inhibition is -18.7%.
As for `Cc1c(Cl)cccc1NC(=O)C(C)N(c1ccccc1)S(C)(=O)=O` (stereo not given), the inhibition was -3.49%.
For `O=S(=O)(c1ccccc1)c1nc(-c2ccccc2)oc1N1CCN(c2cccc(Cl)c2)CC1`, the inhibition stood at 4.7%.
As to `O=C(CSCc1cnn(-c2ccccc2)c1-n1cccc1)NCc1ccccc1Br`, the inhibition turned out to be 10%.
With `CCc1ccc(NC(=O)COCc2cc(-c3ccc(F)cc3)on2)cc1` the figure was -16.6%; with `Cn1c(=O)cc(OCC(=O)N2CCN(c3ccc(F)cc3)CC2)c2ccccc21`, 9.39%; with `CC(C)c1ccc(NC(=O)C(NS(=O)(=O)c2ccc3c(c2)CCC(=O)N3)c2ccccc2)cc1` (stereo not given), 8.19%.
Regarding `CCOc1ccccc1Nc1ncnc2c1c(-c1ccccc1)cn2-c1ccc(OC)cc1`, the inhibition was -24.2%.
For the molecule `Cc1ccc2[nH]cc(C(=O)CN3CCN(c4ccccn4)CC3)c2c1`, the inhibition is active: 34.1%.
For `CCOCN(C(=O)Cn1c(CC(C)C)nc2ccccc21)c1c(C)cccc1CC` the value was -4.57%; for `O=C1c2[nH]nc(-c3ccccc3O)c2C(c2ccc(Cl)cc2)N1CCc1ccccc1` (stereo not given), 2.67%.
`CCOC(=O)c1c(C)oc2c1c(C(c1ccccc1)N1CCOCC1)c(O)c1ccccc12` (stereo not given): the inhibition was active: 57.4%.
With `CCCCn1c(N)c(N(CCC(C)C)C(=O)c2cccc(S(=O)(=O)N3CCN(C)CC3)c2)c(=O)[nH]c1=O`, the inhibition is active: 34%.
For `COc1cc(OC)cc(-c2cc3nc(C)c(CCC(=O)Nc4ccc(F)c(Cl)c4)c(C)n3n2)c1` the value was 8.28%.
As for `CCOc1ccccc1NC(=O)C1=C(C)Nc2ncnn2C1c1ccccn1` (stereo not given), the inhibition is -4.57%.
Turning to `CCOC(=O)CCn1cnc2onc(-c3ccccc3Cl)c2c1=O`, the inhibition is 12.2%.
Regarding `COC(=O)c1ccc(Nc2ncnc3c2cnn3-c2ccccc2)cc1`, the inhibition turned out to be 1.01%.
For `COc1cc(Cl)c(C)cc1NS(=O)(=O)c1c(C)nc2sccn2c1=O`, the inhibition was found to be 12.8%.
In the case of `CC(=O)N1CCN(C(=O)c2cccc(S(=O)(=O)Nc3c(C)n(C)n(-c4ccccc4)c3=O)c2)CC1`, the inhibition is active: 51.1%.
For `COc1ccc(NC(=O)CN(c2ccccc2OC)S(C)(=O)=O)c(OC)c1` the value was -0.549%; for `COc1cc(NC(=O)CCc2c(C)nc3c4c(C)cc(C)nc4nn3c2C)cc(OC)c1`, 6.82%; for `Cc1cc(C)cc(NC(=O)CCCn2nc(C)c3c(C)n(-c4ccccc4)nc3c2=O)c1`, 5.69%.
For `COc1cc(-c2nnc(SCC(=O)Oc3ccc(C)cc3C)o2)cc(OC)c1OC` the value was 27.5%; for `Cc1ccc(CNC(=O)c2nc(S(=O)(=O)Cc3ccc(C)cc3)ncc2Cl)cc1`, -3%.
For `CCOC(=O)C1(C)C=C(Nc2cccc(C)c2)C(=O)N1c1ccccc1` (stereo not given) the value was -5.4%.
`COc1cccc(-c2nc(SCC(=O)NC3CCCC3)c(-c3ccc(F)cc3)[nH]2)c1`: the inhibition was determined as 3.65%.
Regarding `COCc1nc(-c2ccc(-c3ccccc3)nc2OC)no1`, the inhibition was active: 42.3%.
For `CC1CCN(S(=O)(=O)c2ccc3nc(Nc4cccc(C(F)(F)F)c4)ccc3c2)CC1` the value was 5.21%.
For `CC(C)c1ccc(/C=C(\C#N)c2nc(-c3cc4ccccc4oc3=O)cs2)cc1` the value was 10.4%; for `CCOc1ccc(C(=O)Nc2ccc3nc(SCC(=O)N(C)c4ccccc4)sc3c2)cc1`, -11.5%.
For `COc1ccccc1CNC(=O)c1ccc(Nc2nc3ccccc3n3nnnc23)cc1`, the inhibition amounted to 6.1%.
On to `CCOc1ccc(/C=C/c2nc3ccccc3n2S(=O)(=O)c2cccc(Cl)c2)cc1`, for which the inhibition is -5.33%.
Take `O=C(CCNS(=O)(=O)c1cccs1)NC1CCN(Cc2ccccc2)CC1`: the inhibition was active: 41.3%.
Turning to `O=C(NCc1ccccc1)N1CCc2c(sc3c2CCCC3)C1c1ccccc1` (stereo not given), the inhibition was -17.5%.
As for `Cc1ccc(C2CC2/C(=N/O)c2ccc(F)cc2)cc1` (stereo not given), the inhibition was active: 33.6%.
With `COC(=O)c1ccc2c(=O)n(CCCCCC(=O)NC(C)C)c(=O)[nH]c2c1` the figure was -0.781%; with `O=C(Nc1ccnn1C1CCN(Cc2ccccc2OCCO)CC1)c1cccc(F)c1`, active: 40.5%.
With `Cc1cc(C)cc(NC(=O)CCS(=O)(=O)c2ccc3c(c2)oc(=O)n3C)c1` the figure was -1.25%.
For `Cc1ccc(Cl)cc1NC(=O)N1CCc2cc(S(=O)(=O)N3CCC(C)CC3)ccc21` the value was 4.51%; for `O=C(Nc1nnc2n1CCS2)c1ccccc1`, 5.98%.
On to `CC(=O)Nc1ccc2nc(SCCOc3ccccc3)sc2c1`, for which the inhibition is -10.9%.
As to `Cc1cccc(NC(=O)C2(C)Cc3ccccc3C(=O)O2)c1` (stereo not given), the inhibition came to 4.58%.
Regarding `Cc1ccc(NC(=O)C(=O)NCCCN2CCOCC2)cc1C`, the inhibition was 1.95%.
With `COc1ccc2sc(N(CCN(C)C)C(=O)/C=C/c3cccs3)nc2c1` the figure was active: 35.8%; with `Cc1c(CNC2CCCCCC2)c(C(=O)O)c(C)n1Cc1ccc(F)cc1`, -11.2%.
On to `CCc1ccc(CN(Cc2ccco2)C(=O)COc2ccc(Cl)cc2C)cc1`, for which the inhibition is -2.58%.
With `CCc1ccc(NC(=O)CCCn2nc(C)c3c(C)n(-c4ccccc4)nc3c2=O)cc1` the figure was -8.16%; with `CC(C)CC(C(=O)NCCc1ccccc1)N1Cc2ccccc2C1=O` (stereo not given), -10.2%; with `CCCSc1nnc2n(-c3ccc(OC)cc3)c(=O)c3c4c(sc3n12)COC(C(C)C)C4` (stereo not given), -21.8%.
`Cc1nn(C(C)(C)C)c(OC(=O)c2cccc(F)c2)c1Sc1ccccc1`: the inhibition was 10.9%.
With `CCOc1ccc(CNC(=O)C2CCN(Cc3cc4ccccc4n3Cc3ccccc3C)CC2)cc1` the figure was 14%; with `COc1ccc2c(c1)c1nc3ccccc3nc1n2CCn1c(=O)oc2ccccc21`, active: 33.6%.
Regarding `CCn1c(CC2C(=O)N(C)c3ccccc32)nc2ccccc2c1=O` (stereo not given), the inhibition is 22%.
With `O=C(Nc1cccc(F)c1)[C@@H](c1ccccc1)N1Cc2ccccc2C1=O` the figure was 0.0966%; with `COc1ccc(Cl)cc1NC(=O)CSc1nc(-c2ccccc2)c2ccccc2n1`, 7.55%; with `Cc1ccc(OCC(=O)Nc2cc(-c3cccc(C)c3)nn2-c2ccccc2)cc1`, 0.216%.
For `CCc1nc2c(cnn2-c2ccc(Cl)cc2)c(=O)n1-c1ccc(OC)c(Cl)c1` the value was -14.8%; for `Cc1ccc(CCNC(=O)c2ccc3c(c2)c(C)c(C)n3Cc2ccccc2)cc1`, -3.17%.
With `CCOc1ccccc1C(=O)Nc1cc2c(cc1N1CCOCC1)n(C)c(=O)n2C`, the inhibition worked out at 11.1%.
With `CCCn1c(CCC(=O)Nc2cccc(CC)c2)nc2cccnc21`, the inhibition came out at 5.69%.
For `Cc1ccccc1CNC(=O)c1ccc(CS(=O)Cc2ccc(Cl)cc2)o1` (stereo not given) the value was 8.96%; for `COc1ccc(-n2c(=O)c3sc4ccccc4c3n(CC(=O)NCc3ccccc3)c2=O)cc1`, -3.85%; for `O=[N+]([O-])c1cc(-c2nc(-c3ccccc3)no2)ccc1NCCc1ccccc1`, 7.27%.
With `COc1ccc2[nH]cc(CCNC(=O)c3cnn(-c4ccccc4Cl)c3C3CCN(C(=O)OC(C)(C)C)CC3)c2c1` the figure was 21.7%; with `COc1ccc(-c2[nH]c(-c3cccc(OC)c3)nc2SCC(=O)NCc2ccco2)cc1`, active: 39%.
Regarding `CN(CCOc1ccccc1Cl)Cc1ccccc1`, the inhibition was active: 84.7%.
With `CCOc1ccc(C(=O)Nc2ccc(-c3nc4ccccc4s3)c(C)c2)cc1OCC` the figure was -7.7%.
For `Cc1cccc(N2CCN(C(=O)c3ccc(NC(=O)c4nsc5ccccc45)cc3)CC2)c1C` the value was 4.44%.
For `Cc1nc2c(C(=O)NCCc3ccccc3)c[nH]n2c(=O)c1Cc1ccc(F)cc1Cl`, the inhibition is -12.6%.
As to `Cc1ccc(NC(=O)Cn2nnc(-c3nc(-c4ccc(Cl)cc4)no3)c2N)cc1C`, the inhibition came out at 4.86%.
For `COc1ccc(-c2cc(C(=O)N3CCOCC3)no2)cc1` the value was active: 34.6%; for `O=C(CCC(=O)Nc1ccc(Br)cc1)N/N=C/c1ccc(O)cc1`, active: 33.3%; for `CCN(c1cc(C)cc(C)c1)S(=O)(=O)c1nnc(NC(=O)c2ccco2)s1`, 0.428%.
For `CC(C)Cn1c(=O)c2ccccc2n2c(CCC(=O)Nc3ccc(F)c(F)c3)nnc12` the value was 9.09%; for `CCN(C(=O)Cn1nc(Cc2ccncc2)c2ccccc2c1=O)c1cccc(C(F)(F)F)c1`, -0.788%; for `O=C(NCCc1ccccc1)c1ccc2c(c1)CCN2S(=O)(=O)c1ccccc1`, 4.62%.
For `CC(C)CSc1ccccc1NC(=O)c1sc2nc(-c3ccncc3)ccc2c1N` the value was 19.6%; for `O=C(Cn1cc(S(=O)(=O)Cc2ccccc2F)c2ccccc21)NCc1ccccc1Cl`, -2.6%.
Consider `Cc1cc(C)cc(NC(=O)CN2C(=O)CCc3cc(S(=O)(=O)N4CCCCC4)ccc32)c1`, for which the inhibition was determined as 0.222%.
Turning to `Cc1nn2c(=O)cc(COC(=O)c3ccc(NC(=O)c4cccs4)cc3)nc2s1`, the inhibition is -10%.
For `CCOC(=O)c1c(NC(=O)C(C)Oc2ccc(Cl)c(C)c2)sc2c1CCCC2` (stereo not given) the value was -8.68%.
As to `Cc1ccc(Nc2sc(C(=O)c3ccccc3)c(N)c2S(=O)(=O)c2ccccc2)c(C)c1`, the inhibition was determined as 3.2%.
With `COc1ccc(CCNC(=O)c2c(C)nn(-c3ccc(F)cc3)c2-n2cccc2)c(OC)c1OC` the figure was 14.1%; with `COc1ccccc1N1CCN(C(=O)Cn2c(=O)n3nc(-c4cccc(C)c4)nc3c3ccccc32)CC1`, -23.5%.
For `CCCSc1ncc(Cl)c(C(=O)Nc2c(C(=O)c3ccc(F)cc3)oc3ccccc23)n1` the value was 10.7%; for `CCOc1ccc(CNC(=O)C2CCCN(S(=O)(=O)N(CC)c3ccc(OCC)cc3)C2)cc1` (stereo not given), 5.47%; for `COc1ccc(-n2ncc(C(=O)Nc3ccc4c(c3)OCCO4)c2C2CCN(C(=O)OC(C)(C)C)CC2)cc1`, 1.42%.
With `Cc1cccc(C(=O)Nc2cccc(OCc3cc(=O)n4ccccc4n3)c2)c1` the figure was -7.59%; with `CCc1cccc(NC(=O)CCS(=O)(=O)c2cc3c4c(c2)CCN4C(=O)CC3)c1`, -1.83%.
For the molecule `Cc1c(Cl)cccc1-n1nc(C)c2c(C)cc(=O)n(CC(=O)NCc3ccccc3)c21`, the inhibition was -9.26%.
For `O=S(=O)(c1ccccc1)N1CCN(S(=O)(=O)N2CCCCC2)CC1` the value was active: 37.8%.
With `COc1cc2c(cc1OC)C(COc1ccccc1OC)N(C(=O)c1ccccc1OC)CC2` (stereo not given), the inhibition is -14.1%.
With `Cc1cc(C)c(NC(=O)Cn2c(=O)n(Cc3ccccc3)c(=O)c3c(C)c(C(=O)N(C)C)sc32)c(C)c1`, the inhibition was -4.17%.
With `COc1cc2c(=O)c(S(=O)(=O)c3ccccc3)cn(CC(=O)Nc3ccccc3C)c2cc1OC` the figure was -4.94%.
In the case of `CCN1CCN(c2ncnc3scc(-c4ccc(C)cc4)c23)CC1`, the inhibition was active: 67.6%.

Usually inhibition stands for the relative decrease from the control value, in per cent.
